Measurements: US20110020460A1, “GPR 119 MODULATORS” (Pfizer Inc., priority 2009, published 2011)
Certain results were filed several times, with different values. This list holds those alone. An entry can have further records. For some assays here: The records of an entry read as repeated measurements on other runs, samples or individuals. For some assays here: Values given together seem to repeat one measurement; one of them may be the mean.

Target: T1, human GPR119 (Homo sapiens, UniProt Q8TDV5)
T1 construct: host or cells: HEK293-CRE-beta-lactamase
T1 sequence (Q8TDV5 1-335): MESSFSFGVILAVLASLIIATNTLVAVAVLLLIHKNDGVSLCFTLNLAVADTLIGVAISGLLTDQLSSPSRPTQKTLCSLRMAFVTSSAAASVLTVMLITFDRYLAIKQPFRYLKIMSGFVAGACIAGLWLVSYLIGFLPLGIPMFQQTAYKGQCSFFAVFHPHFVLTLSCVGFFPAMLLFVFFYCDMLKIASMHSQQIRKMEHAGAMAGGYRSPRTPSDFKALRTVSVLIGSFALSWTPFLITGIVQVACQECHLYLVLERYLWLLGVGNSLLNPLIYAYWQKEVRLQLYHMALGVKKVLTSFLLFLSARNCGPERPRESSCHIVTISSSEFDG
Assay: cAMP HTRF functional assay (hGPR119 HEK-CRE beta-lactamase cells)
Assay type: cell-based
Details: one value per run
Experimental: GPR119 agonist activity was also determined with a cell-based assay utilizing an HTRF (Homogeneous Time-Resolved Fluorescence) cAMP detection kit (cAMP dynamic 2 Assay Kit; Cis Bio cat #62AM4PEC) that measures cAMP levels in the cell. The method is a competitive immunoassay between native cAMP produced by the cells and the cAMP labeled with the dye d2. The tracer binding is visualized by a Mab anti-cAMP labeled with Cryptate. The specific signal (i.e. energy transfer) is inversely proportional to the concentration of cAMP in either standard or sample.
Following 30 minutes incubation at room temperature, 5 microL of labeled d2 cAMP and 5 microL of anti-cAMP antibody (both diluted 1:20 in cell lysis buffer; as described in the manufacturers assay protocol) were added to each well of the assay plate. […] Raw data were converted to nM cAMP by interpolation from a cAMP standard curve (as described in the manufacturer's assay protocol) and EC50 determinations were made from an agonist-response curves analyzed with a curve fitting program using a 4-parameter logistic dose response equation.

## CC(C)OC(=O)N1CCC(n2ncc(COc3ccc(-n4cnnn4)cc3F)c2C#N)CC1 [Example 3, Isopropyl 4-(5-cyano-4-{[2-fluoro-4-(1H-tetrazol-1-yl)phenoxy]-methyl}-1H-pyrazol-1-yl)piperidine-1-carboxylate]
  EC50: 13, 214, 239, 152, 11 nM [lines of one column]

## CC(C)OC(=O)N1CCC(n2ncc(CC(C)c3ccc(S(C)(=O)=O)cc3F)c2C#N)CC1 (centres unmarked) [Example 29, Isopropyl 4-(5-cyano-4-{2-[2-fluoro-4-(methylsulfonyl)phenyl]propyl}-1H-pyrazol-1-yl)piperidine-1-carboxylate]
  EC50: > 10 µM and 648 nM [lines of one column]
